Source: PubChem BioAssay AID652104 (National Center for Advancing Translational Sciences (NCATS), 2013)
In all, about 410,000 compounds went through this assay and about 7,200 (1.8%) were called active. The inconclusive results got no clear call from the source; some entries with a clear call stand among them for comparison. The call rests on the fitted dose curve; in most records, active means well fitted activation curve with a large enough effect; inconclusive means small, poorly fitted or top-dose-only effect, or another doubt; inactive means no such curve, though single readings can be large or run the other way. No potency is given beside an inconclusive call; the fits are too rough.

Experiment: qHTS of TDP-43 Inhibitors; further: nearly all actives have a fitted effect of over 50% in size; on growth rescue (activation): % of control where 0% means no effect
Conditions: TDP-43 expressing yeast growth rescue, BacTiter-Glo, 24 h; growth rescue (activation): at 46.1 µM (top of the series) unless noted
Procedure, shortened: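 Readout is BacTiter-Glo luminescence of cell growth, so inhibitors register as activators. TDP-43-expressing yeast at OD600=0.02 in galactose medium, after raffinose pregrowth to mid-log, were incubated with compound for 24 hr at 30 deg C.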
Potency means the concentration at half of the fitted maximal effect; tags describe the fitted curve by direction and shape.

| SMILES | Potency | growth rescue (activation) |
| --- | --- | --- |
| CCc1c(C)nc(SC/C=C/c2ccccc2)[nH]c1=O | inconclusive [activator, full curve, poor fit] |  |
| COc1cc(S(=O)(=O)NCc2ccc3c(c2)OCO3)ccc1Cl | active: 12.6 µM |  |
| COc1ccccc1OCc1ccc(C(=O)Nc2ccccc2)cc1 |  | inactive: 12.7% |
| OC(c1ccc(F)c(F)c1)c1nc(-c2ccc(Cl)cc2)cs1 (stereo not given) |  | inconclusive: -86.8% [activator] |
| CCSc1nn2c(=O)c3ccccc3nc2s1 | inconclusive [activator, partial curve] |  |
| O=C(Nc1ccc(-c2nc3ccccc3o2)cc1)c1cccnc1 | inconclusive [activator, partial curve] |  |
| Cc1ccc(CNC(=O)CCc2cn(C)c3ccccc23)cc1 | inconclusive [activator, partial curve] |  |
| CCS(=O)(=O)c1ncc(Cl)c(C(=O)N2CCN(c3ccc(OC)cc3)CC2)n1 | active: 12.6 µM |  |
| Cc1cccc(-c2cc(C(=O)Nc3sc(C)c(C)c3C(N)=O)c3ccccc3n2)c1 | inconclusive [activator, partial curve] |  |
| COc1ccc(-n2ncc3c2CC(C)(C)CC3NC(=O)c2oc(C)cc2C)cc1 (stereo not given) |  | inactive: -2.51% |
| COc1ccc(Cn2cc(S(=O)(=O)c3ccc(C)cc3)c(=O)c3cc(F)ccc32)cc1 | inconclusive [activator, full curve] |  |
| Cc1nc(-c2ccc(S(=O)(=O)Nc3cc(Cl)ccc3C)cc2)co1 | active: 22.4 µM |  |
| CC(C)=CC(=O)Nc1ccc(OCc2ccccc2)cc1 | active: 12.6 µM |  |
| CCn1c(NC(=O)c2cccs2)nc2ccccc21 | inconclusive [activator, single point] |  |
| O=C(Nc1cc(C(F)(F)F)ccc1Cl)C(Sc1cccc[n+]1[O-])c1ccccc1 (stereo not given) |  | inconclusive: -89.1% [activator] |
| Cc1ccc2sc(N(Cc3cccnc3)C(=O)CCS(=O)(=O)c3ccccc3)nc2c1C |  | inactive: -1.22% |
| COc1ccc(N2CCN(C(=O)CSc3nc(-c4ccc(C(C)C)cc4)no3)CC2)cc1 |  | inactive: 11.1% |
| Cc1cc(NC(=O)COC(=O)c2cccc(S(=O)(=O)N(C)C3CCCCC3)c2)no1 | inconclusive [activator, single point] |  |
| COc1ccc(CC(=O)Nc2cc(S(=O)(=O)N3CCCC3)ccc2Cl)c(OC)c1 | inconclusive [activator, single point] |  |
| Cc1ccccc1-n1c(SCC(=O)Nc2ccccc2Cl)nc2n[nH]c(C)c2c1=N |  | inactive: 9.31% |
| CC(C)COc1cccc(-c2cc(C(=O)N/N=C/c3ccncc3)c3ccccc3n2)c1 | inconclusive [activator, single point] |  |
| COc1ccc(-c2nc3scc(CCNS(=O)(=O)c4ccc(Oc5ccccc5)cc4)n3n2)cc1OC |  | inactive: 13.7% |
| COc1ccc(/C=C\c2nc(O)c([N+](=O)[O-])c(=O)[nH]2)cc1O | inconclusive [activator, single point] |  |
| COc1ccc(C2c3[nH]c4ccccc4c3CCN2C(=O)CCC2CCCC2)cc1 (stereo not given) |  | inactive: -1.2% |

| SMILES | Potency | growth rescue (activation) |
| --- | --- | --- |
| CCN(CC)c1ccc(NC(=O)c2cc(C)nc3c2c(C)nn3-c2ccc(C)cc2)c(C)c1 |  | inactive: -5.81% |
| CN(C)/C=C/C(=O)c1cc(N2CCOCC2)ccc1[N+](=O)[O-] | inconclusive [activator, partial curve] |  |
| O=[N+]([O-])c1cccc(C2CC(c3ccccc3)=NN2c2ccccc2)c1 (stereo not given) | inconclusive [activator, single point] |  |
| Cc1cccc(-c2nnc(-c3cccc(NC(=O)Cc4cccs4)c3)o2)c1 |  | inactive: -8.77% |
| Cc1c(-c2ccccc2)c(=O)oc2ccc(OC(=O)N3CCOCC3)cc12 | inconclusive [activator, single point] |  |
| Cc1ncc([N+](=O)[O-])n1CC(C)O (stereo not given) | inconclusive [activator, partial curve] |  |
| Cc1c(C(=O)N2CCC(C)CC2)sc2ncnc(N(C)c3ccccc3)c12 | inconclusive [activator, single point] |  |
| CC1=C(C(=O)N2CCCCCC2)CC(CC(=O)NCCCCc2ccccc2)C(=O)N1CCC1=CCCCC1 (stereo not given) | inconclusive [activator, single point] |  |
| COc1ccc([C@H]2CC(=O)C=C(c3cccc(OC)c3)C2)cc1 | active: 11.2 µM |  |
| Cn1nc(C(=O)Nc2cccc(C(=O)NC3CC3)c2)c2ccccc2c1=O |  | inactive: 7.81% |
| CCOCCCNC(=O)Cn1ncc2c(=O)oc3ccccc3c21 | inconclusive [activator, partial curve, poor fit] |  |
| CCOC(=O)C1(Cc2cccc(Cl)c2)CCCN(C(=O)CCSC)C1 (stereo not given) | inconclusive [activator, partial curve, poor fit] |  |
| Fc1ccc(/C=C2\CCCC3=C2Nc2ncnn2C3c2ccc(F)cc2)cc1 (stereo not given) | inconclusive [activator, partial curve] |  |
| CCOc1ccc(NC(=O)CSC2=Nc3ccccc3C3=NC(CC(=O)NCc4cccs4)C(=O)N23)cc1 (stereo not given) |  | inactive: 27% |
| CCOC(=O)c1ccc(S(=O)(=O)Nc2cc(C(C)(C)C)no2)cc1 | active: 12.6 µM |  |
| COc1cc(-c2cc(OC)c3c(C)oc(C)c3c(=O)c2)ccc1OC(=O)c1ccc(C)cc1 | inconclusive [activator, partial curve] |  |
| Cc1ccc(NC(Cc2cc(C)no2)c2ccccc2)cc1 (stereo not given) | inconclusive [activator, partial curve] |  |
| CCCCN1C(=O)c2ccc(C(=O)NCc3ccco3)cc2C1=O | inconclusive [activator, partial curve] |  |
| Clc1ccc(C[n+]2csc3ccccc32)cc1 | active: 25.1 µM |  |
| CC(C)(C)SCCSC1=CC(=O)CC(c2ccccc2)C1 (stereo not given) | inconclusive [activator, partial curve] |  |
| CCCC(=O)Nc1ccc2nn(-c3ccc(OC)cc3)nc2c1 | inconclusive [activator, partial curve] |  |
| O=C(CSc1ccccc1Cl)N1CCC(c2nc3ccccc3s2)CC1 | inconclusive [activator, single point] |  |
| COc1ccc(C2(C(=O)NCCCN(C)C)CCOCC2)cc1 | inconclusive [activator, partial curve] |  |
| COc1ccc(NC(=O)/C=C\C(=O)N(c2ccc(C(C)C)cc2)C(C(=O)NCc2ccco2)c2ccc(C)cc2)cc1 (stereo not given) |  | inactive: 20% |

| SMILES | Potency | growth rescue (activation) |
| --- | --- | --- |
| CNc1ncc(C(=O)c2ccc(Cl)cc2)s1 | active: 10 µM |  |
| O=C(c1cnn(C(=O)c2ccco2)c1)c1cc(F)ccc1O | active: 28.2 µM |  |
| COc1ccc(NC(=O)c2cc3cc(C)ccc3n2C)c(OC)c1 | inconclusive [activator, single point] |  |
| C=CCNC(=O)c1onc(CSc2ccccc2)c1C(=O)NCC=C | inconclusive [activator, partial curve, poor fit] |  |
| CC(=O)C1C(=O)c2c(cccc2[N+](=O)[O-])C1=Nc1cccc(Cl)c1 (stereo not given) | inconclusive [activator, partial curve] |  |
| O=C(COc1ccc2ccccc2c1Br)N1CCOCC1 |  | inactive: 16.7% |
| CCOc1ccc(Nc2nc(Cl)nc(N3CCN(c4ccc(OC)cc4)CC3)n2)cc1 | inconclusive [activator, partial curve] |  |
| CCn1ncc(Br)c1C(=O)Nc1ccc(OC(F)(F)F)cc1 | inconclusive [activator, partial curve] |  |
| Cc1cc(C)c(S(=O)(=O)NCCS(=O)(=O)N2CCN(c3ccccc3)CC2)c(C)c1 | inconclusive [activator, partial curve] |  |
| CC(=O)Nc1cc2nn(-c3ccccc3)nc2cc1Cl | inconclusive [activator, partial curve] |  |
| CCCCn1c(CN2CCN(c3cccc(Cl)c3)CC2)nc2c1c(=O)n(C)c(=O)n2C | active: 20 µM |  |
| CC(C)Oc1ccc(C(=O)/C=C2/C(=O)Nc3ccccc32)cc1 | inconclusive [activator, single point] |  |
| COc1ccc(N2CC(NS(=O)(=O)c3ccc4ccccc4c3)CC2=O)cc1 (stereo not given) | inconclusive [activator, single point] |  |
| CCCCc1ccc(-n2c(Cc3cccs3)n[nH]c2=S)cc1 | inconclusive [activator, single point] |  |
| COc1ccccc1Cc1nc(-c2ccc(Br)o2)no1 | inconclusive [activator, partial curve] |  |
| CCOC(=O)c1cc(-c2ccc(OC)cc2)n(CCC(=O)NCCc2ccccc2)c1C | active: 31.6 µM |  |
| COc1cccc(C(=O)NCCc2csc3nc(-c4ccccc4F)nn23)c1OC | inconclusive [activator, partial curve] |  |
| CC(=O)Nc1ccc(S(=O)(=O)N(C)CC(=O)N/N=C/c2ccncc2)cc1 |  | inactive: -1.29% |
| COc1cc(NC(=S)N2CCCC(C)C2)c(OC)cc1Cl (stereo not given) | inconclusive [activator, partial curve] |  |
| CCOCCCNC(=O)CN1CCN(S(=O)(=O)c2ccc3c(c2)CCC3)CC1 |  | inactive: 13.7% |
| Cc1cccc(OCCSc2nnc(-c3cccs3)o2)c1 | inconclusive [activator, single point] |  |
| Cc1cc2nc(SCC(=O)N(C)C)c3c(c2cc1C)CCCC3 | inconclusive [activator, single point] |  |
